# This is one part of the list.
# Biological target: T1, OsWOX13 (Oryza sativa, UniProt Q5QMM3 1-267)
# T1 sequence: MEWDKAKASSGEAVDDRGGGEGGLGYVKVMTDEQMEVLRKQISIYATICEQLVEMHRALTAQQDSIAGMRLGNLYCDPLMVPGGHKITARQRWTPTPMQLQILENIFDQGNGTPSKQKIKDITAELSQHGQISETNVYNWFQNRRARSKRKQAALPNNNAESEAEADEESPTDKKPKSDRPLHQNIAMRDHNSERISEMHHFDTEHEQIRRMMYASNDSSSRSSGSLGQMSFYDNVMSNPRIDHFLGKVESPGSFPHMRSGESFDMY
# Experiment: protein-binding microarray (RPBM); PBS, 2% BSA, 51.3 ng/ul salmon testes DNA, 50 uM zinc acetate, 200 nM TF, 25 C, 1 h; high values mean tight binding
# Details: protein: recombinant; tags: N-terminal polyhistidine and DsRed monomer fusion (pET32a); label: CyDye5-dUTP incorporated in the synthesized complementary strand; 3' TTTTT single-stranded linker to array surface; dsDNA, one strand shown
# Summary of the method: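 Binding signal here means per-feature fluorescence intensity in arbitrary units. The values were read on an Axon 4000B scanner after a custom Agilent array, double-stranded by primer extension with Cy5-dUTP, was incubated with 200 nM protein at 25 °C for 1 h in PBS with 2% BSA, salmon testes DNA and 50 µM zinc acetate, then washed. The proteins were transcription factors with an N-terminal polyhistidine tag and DsRed, expressed in E. coli BL21-CodonPlus and purified on Ni–NTA.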
row,Sequence,binding signal
1,AGTTTATAATTGAACGCAATGATGTAATATAATATTAATGCGGAGTCACCTAGTGCAG,25200 fluorescence intensity (a.u.)
2,AATATTATTGATTAGTTGGGCTTATTCATTCCAAAGAAATCGGAGTCACCTAGTGCAG,19200 fluorescence intensity (a.u.)
3,GGCTTAATTTAGTTTTCGTTGTTTCCGCTCAAACAAATCCCGGAGTCACCTAGTGCAG,19400 fluorescence intensity (a.u.)
4,ATAACTAATTACAGATTGCGACTAATTTGTGAGACAAATCCGGAGTCACCTAGTGCAG,32600 fluorescence intensity (a.u.)
5,TTCTCATCTTAATTTACATCATATGGTATGCATCTCTGCACGGAGTCACCTAGTGCAG,7860 fluorescence intensity (a.u.)
6,AACTTATCAAAATTTAATTGGGATTATTTTGGCGATAATACGGAGTCACCTAGTGCAG,16100 fluorescence intensity (a.u.)
7,ACCAAATTATCCTGTTTATTTCTTAGAAGCAAACTATTTGCGGAGTCACCTAGTGCAG,32000 fluorescence intensity (a.u.)
8,TTTGACGAAATTTCAATCGAAATCATCGAAATTTCGATCACGGAGTCACCTAGTGCAG,13100 fluorescence intensity (a.u.)
9,CCATGCATCTGATTAGTCAAAACTAGCATCCAGTAAGCGACGGAGTCACCTAGTGCAG,6350 fluorescence intensity (a.u.)
10,GTATTAAATATAGACTAATTACAAAACCAATACCATAACCCGGAGTCACCTAGTGCAG,11800 fluorescence intensity (a.u.)
11,TAAAACTAATGGTATTAGACAGGGGCGGAGACAAGGGTGGCGGAGTCACCTAGTGCAG,7740 fluorescence intensity (a.u.)
12,TGTGACACATGTTACACATAATTATTATGTGAGTGGTAAACGGAGTCACCTAGTGCAG,8980 fluorescence intensity (a.u.)
13,ATGGATTGAGTGAGTCGTACTTAAGGACTAGAGCTATGAGCGGAGTCACCTAGTGCAG,6120 fluorescence intensity (a.u.)
14,TCTTCTTCTTCCGTCGCTAATTAGATCGTCACTACCTCTTCGGAGTCACCTAGTGCAG,3310 fluorescence intensity (a.u.)
15,GAATAATGAATGATTAGGAGAGACGTGATTAGTTTAGTAGCGGAGTCACCTAGTGCAG,19600 fluorescence intensity (a.u.)
16,ACAAGTACTTAATGATTAAAATGTGCATGTGCCGAGTATACGGAGTCACCTAGTGCAG,4940 fluorescence intensity (a.u.)
17,CAAACTGATCGTTCAGTCACAGACACAGCTCAGAGCTCTCCGGAGTCACCTAGTGCAG,3380 fluorescence intensity (a.u.)
18,AGTAAATTTACTCTATTTTGATCAAGATATTTTGATCAAACGGAGTCACCTAGTGCAG,15400 fluorescence intensity (a.u.)
19,TCTCTGATTCTCAATTTTCAATTTCTTAATAGAGAAGAAGCGGAGTCACCTAGTGCAG,10100 fluorescence intensity (a.u.)
20,AATGATTTCTCGAGCTGACTAGCTAAAATTTGTAAATGTACGGAGTCACCTAGTGCAG,4360 fluorescence intensity (a.u.)
21,ACTAATCATCACATCGCTGTCTCAGATTCTCAGTGACAGACGGAGTCACCTAGTGCAG,4120 fluorescence intensity (a.u.)

row,Sequence,binding signal
1,ACCTACACTTAATTAGGAGACCACTGTCCTCCTCCCCTCTCGGAGTCACCTAGTGCAG,11400 fluorescence intensity (a.u.)
2,AAATAACTAATTACACACATTGCGTGTAAATTGCGAGACGCGGAGTCACCTAGTGCAG,21000 fluorescence intensity (a.u.)
3,ATGTGCAAATTTCTCTTGATGATGACAGTTCAAAGGATGACGGAGTCACCTAGTGCAG,3480 fluorescence intensity (a.u.)
4,GATTAAGATTTTATCCGATTGATGATGCGCCGTAGCAGTGCGGAGTCACCTAGTGCAG,8650 fluorescence intensity (a.u.)
5,AAACTAATAATTAATTAATCATGTACTAATCTCCTTTTCTCGGAGTCACCTAGTGCAG,51100 fluorescence intensity (a.u.)
6,CCAGATTGAGCTGTTGCGCACCACCATCCTGACCAGCTGCCGGAGTCACCTAGTGCAG,17400 fluorescence intensity (a.u.)
7,ATGGAAAAGCTAATCAATCAATCAATGGTTTGATTAATCACGGAGTCACCTAGTGCAG,47900 fluorescence intensity (a.u.)
8,AGAAGATATGATTTGATGCAATTGAAGTATATTCCACAATCGGAGTCACCTAGTGCAG,7910 fluorescence intensity (a.u.)
9,TTAATTGGGCTGAGATGGTCTGGGCCGTATGCCCGTACACCGGAGTCACCTAGTGCAG,3330 fluorescence intensity (a.u.)
10,CATATGGGATTGCAATTGACTTGCCATTATGGAATTATACCGGAGTCACCTAGTGCAG,6970 fluorescence intensity (a.u.)
11,GCGGTCCATAATTACTGCTAGATAGCATTGCTCAAAGCTACGGAGTCACCTAGTGCAG,6520 fluorescence intensity (a.u.)
12,TAAACCTAATTAATCATCATTAGCAAATGTTTACTGTAGCCGGAGTCACCTAGTGCAG,30400 fluorescence intensity (a.u.)
13,TTCTGCATTTTAGTTCACCAATCAACTAATACTCCTCAGCCGGAGTCACCTAGTGCAG,4080 fluorescence intensity (a.u.)
14,AGAGTAATGACTGTGATAGTGGTATTGACAATGCTAGTACCGGAGTCACCTAGTGCAG,11600 fluorescence intensity (a.u.)
15,TCAGTAAATTAGTTATCATTGGCACATAATTTAGCGTCCTCGGAGTCACCTAGTGCAG,27700 fluorescence intensity (a.u.)
16,ATAAAATATATTAATTAATTAGCTCAACCTGGCCAATTTCCGGAGTCACCTAGTGCAG,35700 fluorescence intensity (a.u.)
17,TTTGTTATTGACAACTTTTCCATTTGAAATCATTTACTACCGGAGTCACCTAGTGCAG,4130 fluorescence intensity (a.u.)
18,TTGATTGAAACACTGATGGGACTTGCATACTGCCTTATACCGGAGTCACCTAGTGCAG,45100 fluorescence intensity (a.u.)
19,CTGTAACATCACATTATCAAATCATATCGTAATTAGGCTCCGGAGTCACCTAGTGCAG,8230 fluorescence intensity (a.u.)
20,AATCATGAGATGCCGTGATTAGTAGTTGGGTCGGAGGCCCCGGAGTCACCTAGTGCAG,4090 fluorescence intensity (a.u.)
21,TTTAATTCATCAATTTATATAGTGCTGCAAATGTAGTAATCGGAGTCACCTAGTGCAG,11900 fluorescence intensity (a.u.)

# From publication PMC7819943, “Rice protein-binding microarrays: a tool to detect cis-acting elements near promoter regions in rice”
